These are yes or no findings as the source states them, for the method shown. Binding seen in cells or lysates may run through a third protein. Some results given as binding are weak or reduced against the parent protein; the word gives no strength. Sequences can lack the tags named with a protein.
T1: Perilipin1, HA-tagged (mouse) (UniProt Q8CGN5)
T1 sequence: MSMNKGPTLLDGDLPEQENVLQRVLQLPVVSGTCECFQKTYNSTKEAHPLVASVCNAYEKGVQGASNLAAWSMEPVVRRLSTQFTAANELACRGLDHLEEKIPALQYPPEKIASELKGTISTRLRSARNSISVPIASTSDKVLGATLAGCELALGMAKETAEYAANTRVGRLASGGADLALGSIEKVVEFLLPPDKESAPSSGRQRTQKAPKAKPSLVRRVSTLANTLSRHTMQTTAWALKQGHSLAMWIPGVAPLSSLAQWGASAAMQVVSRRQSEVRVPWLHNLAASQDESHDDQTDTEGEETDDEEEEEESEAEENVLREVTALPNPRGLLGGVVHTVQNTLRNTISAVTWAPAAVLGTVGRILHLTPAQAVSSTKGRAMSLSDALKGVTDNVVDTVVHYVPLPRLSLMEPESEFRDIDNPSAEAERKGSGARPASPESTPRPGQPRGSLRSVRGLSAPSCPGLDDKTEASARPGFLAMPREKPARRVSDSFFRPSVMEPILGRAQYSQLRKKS


Target: T1, Perilipin1, HA-tagged (mouse)
Test: co-IP; 3T3-L1 preadipocytes transfected with BAP31-Flag constructs and Plin1-HA; IP lysis buffer 20 mM Tris pH 7.5, 150 mM NaCl, 1% Triton X-100; anti-HA (and/or anti-Flag) antibody overnight at 4°C, protein A/G beads; immunoblot with anti-Flag

Row | Binder | binding
1 | B-cell receptor-associated protein 31, Flag-tagged, full length (protein, UniProt Q61335 1-245) MSLQWTTVATFLYAEVFAVLLLCIPFISPKRWQKVFKSRLVELVVTYGNTFFVVLIVILVLLVIDAVREILKYDDVTEKVNLQNNPGAMEHFHMKLFRAQRNLYIAGFSLLLSFLLRRLVTLISQQATLLASNEAFKKQAESASEAAKKYMEENDQLKKGAAEDGDKLDIGNTEMKLEENKSLKNDLRKLKDELASTKKKLEKAENEALAMQKQSEGLTKEYDRLLEEHAKLQASVRGPSVKKEE | binds
2 | BAP31 mutant 1-165, Flag-tagged (lacks the C-terminal cytoplasmic portion) (domain or fragment, UniProt Q61335 1-165) MSLQWTTVATFLYAEVFAVLLLCIPFISPKRWQKVFKSRLVELVVTYGNTFFVVLIVILVLLVIDAVREILKYDDVTEKVNLQNNPGAMEHFHMKLFRAQRNLYIAGFSLLLSFLLRRLVTLISQQATLLASNEAFKKQAESASEAAKKYMEENDQLKKGAAEDG | no binding
3 | BAP31 mutant 1-124, Flag-tagged (lacks the C-terminal cytoplasmic portion) (domain or fragment, UniProt Q61335 1-124) MSLQWTTVATFLYAEVFAVLLLCIPFISPKRWQKVFKSRLVELVVTYGNTFFVVLIVILVLLVIDAVREILKYDDVTEKVNLQNNPGAMEHFHMKLFRAQRNLYIAGFSLLLSFLLRRLVTLIS | no binding

Now from value to binder:

Row | binding | Binder
4 | binds | truncated BAP31 containing amino acids 123-245, Flag-tagged (domain or fragment, UniProt Q61335 123-245) ISQQATLLASNEAFKKQAESASEAAKKYMEENDQLKKGAAEDGDKLDIGNTEMKLEENKSLKNDLRKLKDELASTKKKLEKAENEALAMQKQSEGLTKEYDRLLEEHAKLQASVRGPSVKKEE
5 | binds | truncated BAP31 containing amino acids 165-245, Flag-tagged (domain or fragment, UniProt Q61335 165-245) GDKLDIGNTEMKLEENKSLKNDLRKLKDELASTKKKLEKAENEALAMQKQSEGLTKEYDRLLEEHAKLQASVRGPSVKKEE

Reference: PMC10092757
